Data as given in PMC11011526, “Identification of Inhibitors of the Disease-Associated Protein Phosphatase Scp1 Using Antibody Mimetic Molecules” (International Journal of Molecular Sciences, 2024).
No constants are given. Whether binding was seen depends on the method and setting. Some entries that bind do so weakly or less than the wild type.

Target: T1, Scp1 (UniProt Q9GZU7)
T1 sequence: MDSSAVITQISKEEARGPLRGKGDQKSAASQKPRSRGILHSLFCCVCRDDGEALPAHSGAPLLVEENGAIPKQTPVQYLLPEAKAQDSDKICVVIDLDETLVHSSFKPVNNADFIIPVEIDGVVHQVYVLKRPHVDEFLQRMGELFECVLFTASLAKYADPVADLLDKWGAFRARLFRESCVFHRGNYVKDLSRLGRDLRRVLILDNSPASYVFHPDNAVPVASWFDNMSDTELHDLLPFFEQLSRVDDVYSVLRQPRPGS
Assay: solid-phase binding of peptide-BAP chimeras (BAP activity read with pNPP); Scp1 coated on wells; bacterial broth with peptide/BAP chimera, normalized to BAP activity, added; bound chimera measured with pNPP as substrate; only the target purified

FVFGPDA [FG-1 peptide-conjugated bacterial alkaline phosphatase (BAP)]
binding: binds

LLEPEDW [FG-2 peptide-conjugated bacterial alkaline phosphatase (BAP)]
binding: binds weakly

LFEPADR [FG-5 peptide-conjugated bacterial alkaline phosphatase (BAP)]
binding: binds weakly

AVFGPDA [Ala mutant of Phe1 of the FG-1 sequence, peptide-BAP conjugate]
binding: no binding

FAFGPDA [Ala mutant of Val2 of the FG-1 sequence, peptide-BAP conjugate]
binding: no binding

FVAGPDA [Ala mutant of Phe3 of the FG-1 sequence, peptide-BAP conjugate]
binding: no binding

FVFGADA [Ala mutant of Pro5 of the FG-1 sequence, peptide-BAP conjugate]
binding: no binding
